Measurements reported in PubChem BioAssay AID504832 (National Center for Advancing Translational Sciences (NCATS), 2011).
Screen size: about 310,000 compounds; about 18,000 (5.8%) were called active. Inconclusive results, whose numbers are uncertain, are shown with a selection of clear calls. Calls come from the whole dose curve; as a rule, active = well fitted inhibition curve with a large enough effect; inconclusive = small, poorly fitted or top-dose-only effect, or another doubt; inactive = no such curve, though single readings can be large or run the other way. Potencies of inconclusive entries are left out as doubtful fits.

Assay: Primary qHTS for delayed death inhibitors of the malarial parasite plastid, 48 hour incubation
Conditions: P. falciparum luciferase growth in erythrocytes; series mostly up to 28.7 µM; activity change, negative = inhibition: at the top concentration
In short: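 A one-generation exposure of luciferase-tagged malaria parasites in RPMI 1640/Albumax erythrocyte culture, 37 C and 5% CO2. Inhibition is inferred from decreased luminescence after adding detection reagent.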
% is set by controls: 0 for no effect and ±100 for the full control effect; potency is the fitted concentration of half-maximal effect; tags give direction and shape of the fitted curve.

SMILES	Potency	activity change, negative = inhibition
CCCC(=O)c1cc2c(cc1NC(=O)CC)OCCO2	inconclusive [inhibitor, partial curve, poor fit]	
O=S(=O)(c1ccc(Br)cc1)c1nc(-c2ccco2)oc1NCCCn1ccnc1	active: 8.28 µM	
COc1ccccc1NC(=O)C(C)n1cnc2c(oc3nc4c(cc32)CCCC4)c1=O (centres undefined)	inconclusive [inhibitor, single point]	
Cc1ccccc1NC(=O)C1CCCN(c2ncnc3onc(-c4ccc(F)cc4)c23)C1 (centres undefined)	active: 9.28 µM	
COc1ccc(N2CCN(c3nc(NCCc4ccc(OC)c(OC)c4)nc(OC)n3)CC2)cc1	inconclusive [inhibitor, single point]	
Cc1cc(OCC(=O)Nc2ccccc2N2CCCCC2)ccc1C(C)C	inconclusive [inhibitor, partial curve, poor fit]	
O=C(/C=C/c1cccs1)N1CCN(c2ccc(F)cc2)CC1	inconclusive [inhibitor, single point]	
CC1CC(C)CN(C(=O)Cn2c(=O)n(CCCC(=O)NCc3ccco3)c(=O)c3sccc32)C1 (centres undefined)		inactive: 8.99%
Cc1ccc(NC(=O)C2CCN(S(=O)(=O)c3cccs3)CC2)c(O)c1	inconclusive [inhibitor, single point]	
O=C(NN(c1ccccc1)c1ccccc1)c1ccc([N+](=O)[O-])o1	inconclusive [inhibitor, single point]	
O=C(c1cc2ccccc2oc1=O)N(Cc1ccco1)C1CCS(=O)(=O)C1 (centres undefined)		inactive: 7.24%
COc1ccccc1C(=O)NC(CCSC)C(=O)NCC(c1cccs1)N(C)C (centres undefined)	inconclusive [inhibitor, partial curve]	
COc1ccc(CC(=O)Nc2ccccc2-c2ccccc2)cc1OC		inactive: -13.9%
CC(=O)Nc1ccc(S(=O)(=O)N2CCSC2c2ccccc2Cl)cc1 (centres undefined)	inconclusive [inhibitor, partial curve, poor fit]	
CCn1c(/C=C/c2cc[n+](C)cc2)nc2ccccc21	inconclusive [inhibitor, full curve, poor fit]	
O=C(CSc1nc2c(cnn2-c2ccccc2)c(=O)[nH]1)N1CCOCC1	inconclusive [inhibitor, full curve, poor fit]	
CC(C)Nc1nc(NC(C)C)nc(C(N)=O)n1		inactive: 5.51%
Cc1ccc(OC(C)C(=O)Nc2ccc3c(c2)n(C)c(=O)n3C)cc1C (centres undefined)	inconclusive [inhibitor, full curve]	
O=C(CNc1ccc(F)cc1)c1ccccc1	inconclusive [inhibitor, single point]	
O=C1[C@@H]2Cc3c([nH]c4ccccc34)C(c3ccccc3)N2C(=O)CN1C1CCN(Cc2ccccc2)CC1 (some centres undefined)		inactive: 9.35% [at 0.00184 µM]
CN(CC(=O)Nc1ccc(Cl)cc1)c1ccc(S(=O)(=O)N2CCCCC2)cc1[N+](=O)[O-]	inconclusive [inhibitor, single point]	
Cc1ccc(C)c(-n2c(CNc3ccc(F)cc3)nnc2SCC(N)=O)c1		inactive: -28.5%
CCOC(=O)C1(Cc2ccccc2)CCN(Cc2csc(C(C)=O)c2)CC1	inconclusive [inhibitor, partial curve, poor fit]	

SMILES	Potency	activity change, negative = inhibition
Clc1cccc(CSc2nnc([C@@H]3CCCN3)o2)c1	inconclusive [inhibitor, single point]	
COc1ccc(NC(=S)N2CCN(Cc3ccccc3)CC2)cc1		inactive: 28.2%
COc1ccc(S(=O)(=O)N2CCN(C(=O)c3sccc3-c3ccccc3)CC2)cc1	inconclusive [inhibitor, single point]	
CCCCC(=O)N/N=C(\C)CC(=O)Nc1cc(Cl)ccc1OC	inconclusive [inhibitor, single point]	
Cc1cc(Nc2ccccc2C(=O)O)nc2nc3ccccc3c(=O)n12	inconclusive [inhibitor, full curve]	
O=C(COc1ccc(Br)cc1)NC(=S)Nc1ccccc1N1CCOCC1		inactive: 3.64%
N#CC1=C(N)C2=CCCC[C@H]2[C@H](c2ccc(Br)cc2)C1(C#N)C#N	inconclusive [inhibitor, partial curve, poor fit]	
Cc1ccc(C(C)C)cc1C(=O)CC1(O)C(=O)N(C)c2ccccc21 (centres undefined)	inconclusive [inhibitor, single point]	
Cc1nn(Cc2ccccc2)c2c1C(c1ccc(Cl)cc1)C(C#N)=C(N)O2 (centres undefined)	inconclusive [inhibitor, single point]	
COc1ccc(CCN2C(=S)N(C)C(=O)C2CC(=O)Nc2ccc(OC)cc2)cc1 (centres undefined)	inconclusive [inhibitor, single point]	
O=C(NNc1cc(C(F)(F)F)nc2ccccc12)Nc1cccc(Cl)c1		inactive: -3.97%
O=C(NCc1ccccc1)C(c1ccco1)N(C(=O)c1csnn1)c1ccccc1F (centres undefined)		inactive: -3.21%
O=C(Nc1ccccc1F)c1ccc(CSc2ncccn2)cc1		inactive: 332%
N#Cc1c(-c2ccc(Cl)cc2)c2c([nH]c1=O)-c1ccccc1OC2		inactive: -8.13%
CCOc1ccc(S(=O)(=O)N2CCN(CC(O)COc3cccc([N+](=O)[O-])c3)CC2)cc1 (centres undefined)	inconclusive [inhibitor, partial curve]	
CCCN(CCC)C(=S)NC(=O)c1ccc(-c2ccccc2)cc1	inconclusive [inhibitor, single point]	
N#C/C(=C\c1cn(Cc2ccccc2C#N)c2ccccc12)C(=O)NCc1cccs1	inconclusive [inhibitor, partial curve]	
COc1ccccc1CN1C(=O)CN(C2CCCCCC2)C(=O)C1c1ccc(F)cc1 (centres undefined)	inconclusive [inhibitor, single point]	
Cc1ccc(C(=O)NCC(=O)N/N=C/c2cccs2)cc1[N+](=O)[O-]	inconclusive [inhibitor, full curve, poor fit]	
O=C(CSc1ccccc1)N1CCCC(Nc2ccccc2)C1 (centres undefined)		inactive: 4.99%
Cc1ccc(OCCOCCNC(C)C)c(Br)c1	inconclusive [inhibitor, full curve]	
OC(CN1CC=C(/C=C/c2ccc(Br)cc2)CC1)c1ccccc1 (centres undefined)	inconclusive [inhibitor, single point]	
CCCCCCCNC(=O)C1(CC2CC(c3ccc(Cl)cc3)=NO2)CCN(C(=O)c2ccccc2)CC1 (centres undefined)	inconclusive [inhibitor, full curve, poor fit]	

SMILES	Potency	activity change, negative = inhibition
O=C(CNC(=O)c1ccccc1F)Nc1ccccc1C(F)(F)F		inactive: 4.12%
O=C(COc1cccc2c1CCNC2=O)Nc1ccc(F)cc1		inactive: -0.439%
COCCCNC(=O)c1c(N)n(-c2ccccc2)c2nc3ccccc3nc12	inconclusive [inhibitor, single point]	
COc1cc(NC(=O)CN2C(=O)NC(C)(c3ccc(OC(F)F)cc3)C2=O)cc(OC)c1OC (centres undefined)	inconclusive [inhibitor, full curve]	
Cc1cccc(C(=O)N2CCC(=O)N(C(COCc3cccc(Cl)c3)Cc3ccccc3)CC2)c1 (centres undefined)	inconclusive [inhibitor, partial curve, poor fit]	
Cc1cccc2cc(C#N)c(NCCCn3ccnc3)nc12	inconclusive [inhibitor, single point]	
COC(=O)c1ccc(NC(=O)c2ccc(N(C)S(C)(=O)=O)cc2)cc1	inconclusive [inhibitor, partial curve, poor fit]	
COc1ccc(S(=O)(=O)Cc2ccc(C(=O)N3CCN(Cc4ccccc4)CC3)o2)cc1		inactive: -21%
Cc1ccc(CN2CCNC(=O)C2CC(=O)NCC(F)(F)F)o1 (centres undefined)		inactive: 0%
CCc1ccc2[nH]c(=O)c(CN(CCN3CCCC3)C(=O)NC3CCCCC3)cc2c1	inconclusive [inhibitor, partial curve, poor fit]	
CC(=O)N1N=C(c2ccccc2)CC1c1ccc(F)cc1 (centres undefined)		inactive: -2.4%
O=C(COc1ccccc1C(=O)Nc1ccccc1)c1ccc(Br)cc1	inconclusive [inhibitor, partial curve]	
CCCCCC(=O)NC(=S)Nc1ccc(NC(=O)c2ccco2)cc1	inconclusive [inhibitor, partial curve, poor fit]	
COc1ccc(C(=O)NC(=S)Nc2ccc(CN3CCOCC3)cc2)cc1Cl	inconclusive [inhibitor, single point]	
COc1cc2[nH]c(=O)n(CCCCCC(=O)NCCCN3CCC(C)CC3)c(=O)c2cc1OC	inconclusive [inhibitor, single point]	
CCOC(=O)C(O)(c1ccc(N(CC)C(=O)COc2ccccc2)cc1)C(F)(F)F (centres undefined)		inactive: -5.46%
COC(=O)[C@@H](c1ccccc1)N(C)S(=O)(=O)c1cccc(S(=O)(=O)N(C)[C@@H](C(=O)OC)c2ccccc2)c1	active: 13.1 µM	
O=c1cc(-c2ccc(O)c(O)c2)oc2cc(O)cc(O)c12		inactive: -32%
Oc1c(C=NCc2ccc(F)cc2)[nH]c2ccc(Br)c(Cl)c12	active: 2.62 µM	
COc1ccc(N=c2oc3cc(O)ccc3cc2C(=O)Nc2ccccn2)cc1OC	active: 4.65 µM	
COc1cc(C(=S)NC2CCCCC2)ccc1O	active: 10.4 µM	
CC(NCC(=O)Nc1ccccc1C(=O)NC1CC1)c1ccccc1Cl (centres undefined)	active: 9.28 µM	
Cc1cccc(Cn2nc(-n3cccc3)c3c(C)cc(C)nc32)c1		inactive: 0.141%
